We go through 34 variants from the RNAGym collection of RNA variant scans (doi:10.1093/nar/gkz1192).

Read counts are not given, so values of variants with three or more changes are uncertain.

First the molecules themselves.
B1: CPEB3 Ribozyme (parent)
chain: UAACAGGGGGCCACAGCAGAAGCGUUCACGUCGCAGCCCCUGUCAGAUUCUGGUGAAUCUGCGAAUUCUGCUGUAUAUCUC

The variants in the series derive from B1. The series can be described thus: self-cleavage, relative activity (ratio to wild type); higher = more cleavage; in vitro, sequencing. The method in brief:
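Relative activity compares each variant's cleaved/total read fraction with that of the unmutated ribozyme. To get these fractions, barcoded CPEB3 ribozyme libraries from rounds of error-prone PCR were transcribed with T7 RNA polymerase for 5 hours at 37°C and then given 15 min of DNase I treatment before EDTA was added. The RNAs were reverse transcribed with template switching and sequenced on Illumina, and DNA sequencing linked barcodes to variants. A minimum of 5 reads applied, and three batches were averaged.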
On to UAACAGGGGGCCACAGCAGAGGCGUCCACGUCGCAGCCCCUGUCAGAUUCUGGGGAAUCUGCGAAUUCUGCUGUAUAUCUC [A21G U26C U54G], for which the self-cleavage is 0.22. As to UAACAGGGGGCCACAGCAGAGGCGUCCACGUCGCAGCCCCUGUCAGAUUCUGGUGAAUCUGCGAAUUCUGCUGUAUAUCCC [A21G U26C U80C], the self-cleavage is 0.45. For UAACAGGGGGCCACAGCAGAGGCGCUCACGUCGCAGCCCCUGACAGAUUCUGGUGUAUCUGCGAAUUCUGCUGUAUAACUC [A21G U25C U43A A56U U78A], the self-cleavage was determined as 0.07. For UAACAGGGGGCCACAGCAGAGGCGUCCACGUCGCAACCCCUGUCAGAUUCUGGUGAAUCUGCGAAUUCCGCUGUAUAUCUC [A21G U26C G36A U69C], the self-cleavage was found to be 0.06. As to UAACAGGGGGCCACAGCAGAGGCGUACACGUCGCAGCCCCCGUCAGAUUCUGGUGAAUCCGCGAAUUCUGCUGUAUAUCUC [A21G U26A U41C U60C], the self-cleavage was found to be 0.08. UAACAGGGGGCCACAGCAGAGGCGCUCACGUCGCGGCCCCUGUCAGAAUCUGGUGAAUCUGCGAAUUCUGCAGUAUAUCUC [A21G U25C A35G U48A U72A]: the self-cleavage was 0.04. The figure for UAACAGGGGGCCACAGCAGAGGCGCUCACGUCGCAGCCCCUGUCAGAUUCUGGUGAAUCUGCGUAUUCAGCUGUAUAUCUC [A21G U25C A64U U69A] is 0.06; for UAACAGGGGGCCACAGCAGAGGCGCUCACGCCGCAGCCCCUGUCAGAUUCUGGUGAAUCUGCGAAUCCUGCUGUGUAUCUC [A21G U25C U31C U67C A75G] it is 0.07; for UAACAGGGGGCCACAGCAGAGGCGUCCACGUCGCAGCCCCUGCCAGAUUUUGGUGAAUCUGCGAAUUCUGCUGUAUAUCCC [A21G U26C U43C C50U U80C] it is 0.47. UAACAGGGGGCCACAGCAGAGGCGUUCACGACGCGGCCCCUGUCAGAUUCUGGUGAAUCUGCGAAUUCAGCUGUAUAUCUC [A21G U31A A35G U69A]: the self-cleavage is 0.56. As for UAACAGGGGGCCACAGCAGAGGCGUCCACGUCGCAGCCCCUGUCAGUUUCUGGUGAAUCUGCGAAUUCUGCCGUAUAUCUC [A21G U26C A47U U72C], the self-cleavage stood at 0.39. On to UAACAGGGGGCCACAGCAGAGGCGCUCACGUCGCAGCCCCUGUCAGAUUCUGGUGAAUCUGCGAAUUCUGCCGUAAAUCUC [A21G U25C U72C U76A], for which the self-cleavage came out at 0.28. As for UAACAGGGGGCCACAGCAGAGGCGUUCACGCCGCAGCCCCUGUCAGGUUCUGGUGAAUCUGCGAAUUCUGCUGUAUAUCUC [A21G U31C A47G], the figure is 0.19; as for UAACAGGGGGCCACAGCAGAGGCGAUCGCGUCGCAGCCCCUGUCAGAUUCUGGUGAAUCUGCGAAUUCUGCUGUAUAUCUC [A21G U25A A28G], 0.11; as for UAACAGGGGGCCACAGCAGAGGCGCUUACGUCGCAGCCCCUGUCAGAUUCUGGUGGAUCUGCGAAUUCUGCUGUAUAUCUC [A21G U25C C27U A56G], 0.08.

Turning to UAACAGGGGGCCACAGCAGAGGCGUUCACGACGCUGCCCCUGUCAGAUUCUGGUGAGUCUGCGAAUUCUGCUGUAUAUCUC [A21G U31A A35U A57G], the self-cleavage turned out to be 0.09. As for UAACAGGGGGCCACAGCAGAGGCGCUCACGUCGCAGCCCCAGUCAGACUCUGGUGAAUCUGCGAAUUCUGCUGUAUAUCUC [A21G U25C U41A U48C], the figure is 0.31; as for UAACAGGGGGCCACAGCAGAGGCGUGCACGUCGCAGCCCCUGUCAGAUUCUGGUAAAUCUGCGAUUUCUGCUGUAUAUCUC [A21G U26G G55A A65U], 0.07. In the case of UAACAGGGGGCCACAGCAGAGGCGCUCACGUCGCAACACCUGUCAAAUCCUGGUGAAUCUGCGAAUUCUGAUGUAUAUCUC [A21G U25C G36A C38A G46A U49C C71A], the self-cleavage is 0.03. For the variant UAACAGGGGGCCACAGCAGAGGCGUUCACGACGCAGCUCCUGUCAGACUCUGGUGAAUCUGCGAAUUCUGCUGUAUAUCUC [A21G U31A C38U U48C], the self-cleavage was 0.12. The figure for UAACAGGGGGCCACAGCAGAGGCGUCCACGUCGCAGCCCCUGUCAGAUUCUGGUGAGUCUGCGAAUUCUGCUGUAUAUCUC [A21G U26C A57G] is 0.31; for UAACAGGGGGCCACAGCAGAGGCGUCCACGUCGCAGCCCCUGUCAGAUUCUGGUGAAUCUGCGAAUUCUGCUGUAUUUCUC [A21G U26C A77U] it is 0.17; for UAACAGGGGGCCACAGCAGAGGCGUCCACGUCGCGGCCCCUGUCAGAUUCUGGUGAAUCUGCGAAUUCUGCCGUAUAUCUC [A21G U26C A35G U72C] it is 0.38. The figure for UAACAGGGGGCCACAGCAGAGGCGUUCACGACGCAGCCCCUGUCAGAUUCUGGUGAAUCUGCGAAUUCUGCUGUAUUUCUC [A21G U31A A77U] is 0.39; for UAACAGGGGGCCACAGCAGAGGCGUACACGUCGCAGCCCCUGUCAGAUUCUGGUGAAUCUGCGAAUUCUGCCGUAUAUCUC [A21G U26A U72C] it is 0.45; for UAACAGGGGGCCACAGCAGAGGCGCUCACGUCGCAGCCCCGGUCAGAUUCUGGUGAAUCUGCGGUUUCUGCUGUAUAUCUC [A21G U25C U41G A64G A65U] it is 0.09. The figure for UAACAGGGGGCCACAGCAGAGGCGUUCACGACGCAGCCCCUGUCAGAUUCUGGUGAGUCUGCGAAUUCUGCUGUAUAUCUA [A21G U31A A57G C81A] is 0.31; for UAACAGGGGGCCACAGCAGAGGCGUACACGUCGCAGCCCCUGUCAGAUUCUGGUUAAUCUGCGAAUCCUGCUGUAUAUCUC [A21G U26A G55U U67C] it is 0.08. For UAACAGGGGGCCACAGCAGAGGCGUACACGCCGCAGCCCCUGUCAGAUUCUGGUGAAUCUGCGAGCUCUGCUGUAUAUCUC [A21G U26A U31C A65G U66C], the self-cleavage was 0.06. In the case of UAACAGGGGGCCACAGCAGAGGCGUCCACGUCGCAGCCCCUGUAAGAUUCUGGUGAAUCUGCGAAUUCUGCUGUAUAUCUC [A21G U26C C44A], the self-cleavage came to 0.13. The figure for UAACAGGGGGCCACAGCAGAGGCGUACACGUCGCAGCCCCUGUCAGAUUCUGGUGAAUCUGCGUAUCCAGCCGUAUAUCCC [A21G U26A A64U U67C U69A U72C U80C] is 0.09. The figure for UAACAGGGGGCCACAGCAGAGGCGAUCACGUCGCAGCCCCCGUCAGAUUGUGGUGGAUCCGCGAAUUCUGCUGUAUUUCUC [A21G U25A U41C C50G A56G U60C A77U] is 0.08; for UAACAGGGGGCCACAGCAGAGGCGUUCACGUCGCAGCCCCUGUCAGAUUCUGUUGAAUCUGCGAAUUCUGCUGUAUAUCCC [A21G G53U U80C] it is 0.84; for UAACAGGGGGCCACAGCAGAGGCGCUCACGUCGCAGCCCCUGUCAGAUUCUGGUGAAUCUGCGAAUUCUGCUGUAUAUCCC [A21G U25C U80C] it is 0.34.
